# Assay results taken from the supplement of paper PMC8728848.
# Some of the results follow.
# B1: Eap (Staphylococcus aureus), A0A7L5PYT7 (protein)
# chain: MKFKSLITTTLALGVLASTGANFNNNEAAAAAKPLDKSSSSLHHGYSKVHVPYAITVNGTSQNILSSLTFNKNQNISYKDLEDRVKSVLKSDRGISDIDLRLSKQAKYTVYFKNGTKKVIDLKAGIYTADLINTSEIKAININVDTKKQVEDKKKDKANYQVPYTITVNGTSQNILSNLTFNKNQNISYKDLEDKVKSVLESNRGITDVDLRLSKQAKYTVNFKNGTKKVIDLKSGIYTANLINSSDIKSININVDTKKHIENKAKRNYQVPYSINLNGTSTNILSNLSFSNKPWTNYKNLTSQIKSVLKHDRGISEQDLKYAKKAYYTVYFKNGGKRILQLNSKNYTANLVHAKDVKRIEITVKTGTKAKADRYVPYTIAVNGTSTPILSDLKFTGDPRVGYKDISKKVKSVLKHDRGIGERELKYAKKATYTVHFKNGTKKVININSNISQLNLLYVQDIKKIDIDVKTGTKAKADSYVPYTIAVNGTSTPILSKLKISNKQLISYKYLNDKVKSVLKSERGISDLDLKFAKQAKYTVYFKNGKKQVVNLKSDIFTPNLFSAKDIKKIDIDVKQYTKSKKNK
# Key:
# Assay in all cases: glycan array binding signal (z-score within array); higher = stronger binding
# Conditions in all cases: glycan notation: IUPAC condensed, linker removed
# Fuc(a1-2)Gal = target: Fuc(a1-2)Gal
# Outline: (§1)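 Columns mapping to the same glycan were averaged after glycan names were converted to IUPAC-condensed notation. The data come from 3228 arrays in the Consortium for Functional Glycomics database, limited to those with an available protein sequence. Binding is reported as a within-array Z-score averaged across arrays of one protein sequence and across linkers.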
# Fuc(a1-2)Gal(b1-3)GalNAc = target: Fuc(a1-2)Gal(b1-3)GalNAc
# Outline: as §1
# [1] = target: Fuc(a1-2)Gal(b1-3)GalNAc(b1-3)Gal
# Outline: as §1
# [2] = target: Fuc(a1-2)Gal(b1-3)GalNAc(b1-3)Gal(a1-4)Gal(b1-4)Glc
# Outline: as §1
# [3] = target: Fuc(a1-2)Gal(b1-3)GalNAc(b1-4)[Neu5Ac(a2-3)]Gal(b1-4)Glc
# Outline: as §1
# Fuc(a1-2)Gal(b1-3)GlcNAc = target: Fuc(a1-2)Gal(b1-3)GlcNAc
# Outline: as §1
# [4] = target: Fuc(a1-2)Gal(b1-3)GlcNAc(b1-2)Man(a1-3)[Fuc(a1-2)Gal(b1-3)GlcNAc(b1-2)Man(a1-6)]Man(b1-4)GlcNAc(b1-4)GlcNAc
# Outline: as §1
# [5] = target: Fuc(a1-2)Gal(b1-3)GlcNAc(b1-3)Gal(b1-4)Glc
# Outline: as §1
# [6] = target: Fuc(a1-2)Gal(b1-3)GlcNAc(b1-3)[Gal(b1-4)[Fuc(a1-3)]GlcNAc(b1-6)]Gal(b1-4)Glc
# Outline: as §1
# [7] = target: Fuc(a1-2)Gal(b1-3)[Fuc(a1-4)]GlcNAc
# Outline: as §1
# [8] = target: Fuc(a1-2)Gal(b1-3)[Fuc(a1-4)]GlcNAc(b1-2)Man(a1-3)[Fuc(a1-2)Gal(b1-3)[Fuc(a1-4)]GlcNAc(b1-2)Man(a1-6)]Man(b1-4)GlcNAc(b1-4)GlcNAc
# Outline: as §1
# Fuc(a1-2)Gal(b1-4)Glc = target: Fuc(a1-2)Gal(b1-4)Glc
# Outline: as §1
# Fuc(a1-2)Gal(b1-4)Glc6S = target: Fuc(a1-2)Gal(b1-4)Glc6S
# Outline: as §1
# Fuc(a1-2)Gal(b1-4)GlcNAc = target: Fuc(a1-2)Gal(b1-4)GlcNAc
# Outline: as §1
# [9] = target: Fuc(a1-2)Gal(b1-4)GlcNAc(b1-2)Man(a1-3)[Fuc(a1-2)Gal(b1-4)GlcNAc(b1-2)Man(a1-6)]Man(b1-4)GlcNAc(b1-4)GlcNAc
# Outline: as §1
# [10] = target: Fuc(a1-2)Gal(b1-4)GlcNAc(b1-3)Gal(b1-4)GlcNAc
# Outline: as §1
# [11] = target: Fuc(a1-2)Gal(b1-4)GlcNAc(b1-3)Gal(b1-4)GlcNAc(b1-3)Gal(b1-4)GlcNAc
# Outline: as §1
# [12] = target: Fuc(a1-2)Gal(b1-4)GlcNAc6S
# Outline: as §1
# [13] = target: Fuc(a1-2)Gal(b1-4)[Fuc(a1-3)]GlcNAc
# Outline: as §1
# [14] = target: Fuc(a1-2)Gal(b1-4)[Fuc(a1-3)]GlcNAc(b1-2)Man(a1-3)[Fuc(a1-2)Gal(b1-4)[Fuc(a1-3)]GlcNAc(b1-2)Man(a1-6)]Man(b1-4)GlcNAc(b1-4)GlcNAc
# Outline: as §1
# [15] = target: Fuc(a1-2)Gal(b1-4)[Fuc(a1-3)]GlcNAc(b1-3)Gal(b1-4)[Fuc(a1-3)]GlcNAc
# Outline: as §1
# [16] = target: Fuc(a1-2)Gal(b1-4)[Fuc(a1-3)]GlcNAc(b1-3)Gal(b1-4)[Fuc(a1-3)]GlcNAc(b1-3)Gal(b1-4)[Fuc(a1-3)]GlcNAc
# Outline: as §1
# Fuc(a1-2)Gal6S(b1-4)Glc = target: Fuc(a1-2)Gal6S(b1-4)Glc
# Outline: as §1
# [17] = target: Fuc(a1-2)Gal6S(b1-4)Glc6S
# Outline: as §1
# [18] = target: Fuc(a1-2)Gal6S(b1-4)GlcNAc
# Outline: as §1
# Fuc(a1-2)[Gal(a1-3)]Gal = target: Fuc(a1-2)[Gal(a1-3)]Gal
# Outline: as §1
# [19] = target: Fuc(a1-2)[Gal(a1-3)]Gal(b1-3)GlcNAc
# Outline: as §1
# [20] = target: Fuc(a1-2)[Gal(a1-3)]Gal(b1-3)GlcNAc(b1-2)Man(a1-3)[Fuc(a1-2)[Gal(a1-3)]Gal(b1-3)GlcNAc(b1-2)Man(a1-6)]Man(b1-4)GlcNAc(b1-4)GlcNAc
# Outline: as §1
# [21] = target: Fuc(a1-2)[Gal(a1-3)]Gal(b1-4)Glc
# Outline: as §1
# [22] = target: Fuc(a1-2)[Gal(a1-3)]Gal(b1-4)GlcNAc
# Outline: as §1
binder,measurement,setting,value
B1,glycan array binding signal (z-score),Fuc(a1-2)Gal,-0.414
same,glycan array binding signal (z-score),Fuc(a1-2)Gal(b1-3)GalNAc,0.14
same,glycan array binding signal (z-score),[1],-0.474
same,glycan array binding signal (z-score),[2],0.012
same,glycan array binding signal (z-score),[3],-0.367
same,glycan array binding signal (z-score),Fuc(a1-2)Gal(b1-3)GlcNAc,0.041
same,glycan array binding signal (z-score),[4],-0.431
same,glycan array binding signal (z-score),[5],-0.377
same,glycan array binding signal (z-score),[6],-0.483
same,glycan array binding signal (z-score),[7],-0.514
same,glycan array binding signal (z-score),[8],0.259
same,glycan array binding signal (z-score),Fuc(a1-2)Gal(b1-4)Glc,-0.374
same,glycan array binding signal (z-score),Fuc(a1-2)Gal(b1-4)Glc6S,0.006
same,glycan array binding signal (z-score),Fuc(a1-2)Gal(b1-4)GlcNAc,-0.415
same,glycan array binding signal (z-score),[9],-0.43
same,glycan array binding signal (z-score),[10],-0.412
same,glycan array binding signal (z-score),[11],-0.357
same,glycan array binding signal (z-score),[12],-0.281
same,glycan array binding signal (z-score),[13],2.21
same,glycan array binding signal (z-score),[14],-0.209
same,glycan array binding signal (z-score),[15],-0.313
same,glycan array binding signal (z-score),[16],-0.197
same,glycan array binding signal (z-score),Fuc(a1-2)Gal6S(b1-4)Glc,0.262
same,glycan array binding signal (z-score),[17],1.25
same,glycan array binding signal (z-score),[18],-0.45
same,glycan array binding signal (z-score),Fuc(a1-2)[Gal(a1-3)]Gal,-0.341
same,glycan array binding signal (z-score),[19],0.027
same,glycan array binding signal (z-score),[20],-0.498
same,glycan array binding signal (z-score),[21],-0.059
same,glycan array binding signal (z-score),[22],-0.309
